# Several values for one entry are separate records, joined by “and”; a condition that tells them apart may be missing. Equal entries are not always repeated. About 64,000 (15%) of roughly 420,000 compounds were called active. The inconclusive results got no clear call from the source; some entries with a clear call stand among them for comparison. The call rests on the fitted dose curve; in most records, active means well fitted inhibition curve with a large enough effect; inconclusive means small, poorly fitted or top-dose-only effect; inactive means flat fitted curve, though single readings scatter. Potencies of inconclusive entries are left out as doubtful fits.
# Assay: qHTS for Inhibitors of human tyrosyl-DNA phosphodiesterase 1 (TDP1): qHTS in cells in absence of CPT; further: nearly all actives have a fitted effect of over 55% in size
# Conditions: DT40 Tdp1-/- hTDP1 cells, no CPT, ATP luminescence, 48 h; activity change, negative = growth inhibition: at 46.2 µM (top of the series) unless noted
# Outline: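 No-CPT arm: Tdp1-/-;hTDP1 DT40 cells (400/well) plus compounds, incubated ≥48 hr at 37 °C. Readout CellTiter-Glo luminescence.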
# On the % scale 0 is the no-effect control and ±100 the full control effect; potency means the concentration at half of the fitted maximal effect; tags describe the fitted curve by direction and shape.
SMILES,Potency,"activity change, negative = growth inhibition"
COCCN(C(=S)Nc1ccc(C)c(C)c1)C(C)c1ccco1 (configuration not stated),"inconclusive [inhibitor, single point]",
COC(=O)Nc1nc2ccc(SC(C)C)cc2[nH]1,active: 3.26 µM,
Cc1ccc(CSC2=NC(C)(C)Nc3ccccc32)c(C)c1,"inconclusive [inhibitor, single point]",
COc1ccc(-c2csc3ncnc(Nc4ccccc4)c23)cc1,inactive,
Cc1ccccc1S(=O)Cc1ccc(C(=O)NCc2ccccc2Cl)o1 (configuration not stated),"inconclusive [inhibitor, single point]",
COC(=O)C1=C(C)NC(C)=C(C(=O)OCCCN2CCC(c3ccccc3)(c3ccccc3)CC2)[C@H]1c1cccc([N+](=O)[O-])c1,active: 13.3 µM and active: 11.9 µM,
CCOc1cc(C)c(C(C)C)cc1S(=O)(=O)n1ccc(C)n1,"inconclusive [inhibitor, single point]",
CN(Cc1ccccc1)C(=O)CN(C1CCCCC1)S(C)(=O)=O,inactive,
COc1ccc(CNC(=O)C(NS(=O)(=O)c2ccc3c(c2)CCCN3C(C)=O)C(C)C)cc1 (configuration not stated),"inconclusive [inhibitor, single point]",
CON(C)S(=O)(=O)c1cccc(C(=O)Nc2cccc(S(=O)(=O)NC3=NCCCCC3)c2)c1,,inconclusive: -32% [inhibitor]
COc1cc(OC)c(NS(=O)(=O)c2ccc3c(c2)NC(=O)CO3)cc1Cl,"inconclusive [inhibitor, single point]",
CCOC(=O)Cn1nnc(-c2cc(OC)c(OC)c(OC)c2)n1,inactive,
CCOc1ccc(N/C(N)=N/c2nc(CSc3nnc(C)s3)cc(=O)[nH]2)cc1,active: 0.58 µM,
Nc1nc(Sc2ccc(C(F)(F)F)cc2[N+](=O)[O-])n[nH]1,inactive,
CCNc1nc2c(c(=O)n(C)c(=O)n2C)n1Cc1ccc(F)cc1,active: 1.03 µM,
CC(=O)Oc1c(I)cc(I)cc1C(=O)Nc1ccc(Cl)cc1,active: 20.6 µM,
O=C(NCc1cccs1)c1nc(-c2cccs2)no1,"inconclusive [inhibitor, single point]",
Cn1c(=O)cc(OCCCC(=O)N2CCN(c3ccccc3)CC2)c2ccccc21,"inconclusive [inhibitor, single point]",
CSc1ncnc2c1ccn2CC(=O)Nc1ccc(C)c(C)c1,"inconclusive [inhibitor, partial curve]",
COC(=O)c1[nH]c2ccc(C)cc2c1NC(=O)CN1CCN(Cc2ccccc2)CC1,active: 25.9 µM,
COc1ccc(-c2noc(N3CCC(C(=O)N4CCN(c5cccc(OC)c5)CC4)CC3)n2)cc1,active: 3.26 µM,
CCn1cnc2cc(NC(=O)COc3ccc(C)cc3)ccc21,"inconclusive [inhibitor, single point]",
CCN1CCCC1CNC(=O)c1ccc2c(c1)NC(=O)/C(=C\c1ccc(C)cc1)S2 (configuration not stated),active: 16.4 µM,
CCOc1ccc2c(c1)c(=O)c(C(=O)c1ccc(CC)cc1)cn2CC(=O)Nc1ccc2c(c1)OCCO2,"inconclusive [inhibitor, single point]",

SMILES,Potency,"activity change, negative = growth inhibition"
O=C(CCSc1nc(-c2ccco2)cc(C(F)(F)F)n1)NCCN1CCOCC1,inactive,
Cc1ccccc1NNC(=O)C(=O)NNc1ccccc1C,inactive,
O=S(=O)(NC1CCCCC1N1CCN(c2ccc(F)cc2)CC1)c1ccc(Cl)cc1 (configuration not stated),"inconclusive [inhibitor, single point]",
COC(=O)c1ccccc1NC(=O)C1CCN(c2ncnc3c2nc2n3CCCCC2)CC1,active: 16.4 µM,
O=C(NCC(c1ccco1)N1CCOCC1)c1ccc(Cl)cc1 (configuration not stated),inactive,
COc1ccc(Br)c(C(=O)Nc2cccc(Cl)c2Cl)c1,"inconclusive [inhibitor, single point]",
Cc1cc(C)c(C(=O)Cn2nc(C)c([N+](=O)[O-])c2C)cc1C,"inconclusive [inhibitor, single point]",
O=C(NC1CCCC1)C(c1ccc(Cl)cc1)N(Cc1ccc(F)cc1)C(=O)CCl (configuration not stated),active: 2.59 µM,
COc1cccc(C(=O)NCCS(=O)(=O)NCc2ccc(Cl)cc2)c1,inactive,
COc1ccc(-c2nc3c4ccccc4ccn3c2Cc2cccc(F)c2)cc1OC,"inconclusive [inhibitor, single point]",
O=C(CN1CCc2ccccc21)NC(c1ccccc1)c1ccccc1,inactive,
CCOC(=O)Nc1ccc2c(c1)N(C(=O)CCN1CCN(C)CC1)c1ccccc1S2,inactive,
CCNC(=O)C(=O)Nc1ccc([N+](=O)[O-])cc1,"inconclusive [inhibitor, partial curve]",
COc1cccc(NC(=O)c2cc(=O)c3ccccc3o2)c1,"inconclusive [inhibitor, single point]",
CCN(C[C@H]1N[C@@](CC)(C(=O)OC)[C@H]2C(=O)N(Cc3ccccc3)C(=O)[C@@H]12)S(=O)(=O)c1ccc(-c2ccccc2)cc1,"inconclusive [inhibitor, single point]",
Cn1nnc(NC(=S)NC(=O)c2ccco2)n1,"inconclusive [inhibitor, single point]",
Cc1cc(C)c(S(=O)(=O)c2ccccc2)c(OC(=O)c2ccc(Cl)cc2Cl)n1,,inconclusive: -32.2% [inhibitor]
O=C(Cn1nc(-c2ccccc2)ccc1=O)N1CCOCC1,inactive,
O=C(NCCc1cccc(Cl)c1)c1cccc([N+](=O)[O-])c1,"inconclusive [inhibitor, single point]",
O=C(/C=C/c1ccc([N+](=O)[O-])cc1)NC1CC2CCC1C2 (configuration not stated),"inconclusive [inhibitor, single point]",
CCc1cc(C)cc(OCCOc2ccccc2/C=N/NC(C)=O)c1,"inconclusive [inhibitor, single point]",
COCCn1c(=O)c(-c2cccs2)nc2cnc(N3CCOCC3)nc21,inactive,
CC(=O)Nc1ccc2nc(-c3cccs3)[nH]c2c1,inactive,

# Reference: PubChem BioAssay AID686978 (National Center for Advancing Translational Sciences (NCATS), 2013)
